# Laboratory results published in PubChem BioAssay AID938 (National Center for Advancing Translational Sciences (NCATS), 2007).
# “And” between values parts separate entries of the source, which are not always exact repeats. Equal entries are not always repeated. In all, about 73,000 compounds went through this assay and about 1,800 (2.5%) were called active. Not shown: some 13% with an inconclusive outcome. Calls come from the whole dose curve; as a rule, active = well fitted activation curve with a large enough effect; inconclusive = small, poorly fitted or top-dose-only effect; inactive = no such curve, though single readings can be large or run the other way. Only a part is listed here, and it is no random draw.
# Experiment: qHTS Assay for Agonists of the Thyroid Stimulating Hormone Receptor: Activators of Intracellular cAMP Concentrations in Parental HEK 293; note: nearly all actives have a fitted effect of over 55% in size; for activation: % of control where 0% means no effect
# Details: parental HEK293 CNG cAMP sensor, membrane potential fluorescence; series mostly up to 57.1 µM; activation: at the top concentration
# Description: NIH Chemical Genomics Center [NCGC]
# NIH Molecular Libraries Screening Centers Network [MLSCN]
# PI Name: Dr. Marvin Gershengorn
# This cell based assay utilized a cyclic nucleotide gated ion channel (CNG) as a biosensor for cAMP induction. HEK 293 cells stably expressing the modified CNG were purchased from BD biosciences (http://www.atto.com/products/actone/features_benefits.shtml) . Stimulation of cAMP production causes the CNG to open and subsequent membrane depolarization to occur. A fluorescent membrane potential dye (BD biosciences) was utilized to detect cAMP stimulation in cells.
# The cells were maintained in DMEM medium (Invitrogen) containing 10 % FBS (Hyclone), 100 units/ml Penicillin, 100 ug/ml Streptomycin (Invitrogen), and 250 ug/ml Geneticin (Invitrogen) and 1 ug/ml Puromycin (Invitrogen) at 37C in 5% CO2. This assay was used as a counterscreen to "qHTS Assay for Agonists of the Thyroid Stimulating Hormone Receptor", to control for compounds signaling through endogenous receptors and other targets of HEK 293 cells.
# NCGC Assay Protocol Summary:
# High Throughput Screening. Freshly passaged cells were dispensed into 1536-well assay plates at 4 ul/well in DMEM containing phenol red (Invitrogen), 10% FCS (Hyclone), and 100 units/ml Penicillin, 100 ug/ml Streptomycin (Invitrogen) and incubated at 37 C with 5% CO2 for 20 to 36 hrs before the robotic screening. The screen was initiated by addition of 4 ul/well membrane potential dye containing 100 uM RO 20-1724 (Sigma Aldrich), followed by 60 min incubation at room temperature to allow for dye equilibration across the cell membrane. 23 nl/well compound or control was then added to the assay plates, which were incubated for additional 30 min before reading a Envision fluorescence plate reader (Perkin Elmer) in bottom-read mode for fluorescence intensity (emission at 590 nm).
# Keywords: cAMP, CNG Ion Channel, quantitative high throughput screening, qHTS, HTS, probe identification, CNG, cAMP, cyclic nucleotide gated ion channel PubChem
# Potency is the fitted concentration of half-maximal effect.
Structure (SMILES),activation,Potency
Cn1c(=O)[nH]c(=O)c2[nH]c(N(Cc3ccccc3)Cc3ccccc3)nc21,inactive: -35.7%,
CC(=O)c1c(C)nc(C)nc1NC(=O)Cc1ccccc1,inactive: -2.25%,
CCCC(c1nnnn1C1CCCC1)N1CCN(c2ccccc2F)CC1 (configuration not stated),,active: 5.01 µM
CN1CCN(c2ncc3nc(-c4cn(C)c5ccccc45)c(=O)n(CCC#N)c3n2)CC1,inactive: -36.9%,
O=C(OCC#CCSc1nnc(-c2cccc3ccccc23)o1)c1cccs1,inactive: 23.7%,
CC1=NS(=O)(=O)c2cc(Cl)ccc2N1,inactive: -4.19%,
CC[C@H]1OC(=O)[C@H](C)[C@@H](O[C@H]2C[C@@](C)(OC)[C@@H](O)[C@H](C)O2)[C@H](C)[C@@H](O[C@@H]2O[C@H](C)C[C@H](N(C)C)[C@H]2O)[C@](C)(O)C[C@@H](C)CN(C)[C@H](C)[C@@H](O)[C@]1(C)O,inactive: -30.5%,
CCCC[C@@H]1C[C@H]1C(NC(=O)c1ccco1)c1ccc(Cl)cc1 (some centres not stated),,active: 15.8 µM
CCCn1c(-c2ccc(F)cc2)nc2c(NCC3CCCN3CC)nc(C)nc21 (configuration not stated),,active: 15.8 µM
CCCOC(=O)c1ccc(O)cc1,,inactive
Cc1ccc(-c2cc(C(F)(F)F)nn2-c2ccc(S(N)(=O)=O)cc2)cc1,inactive: -35%,
CN1C(=O)Cn2c1nc1ccccc12,,active: 20 µM
O=C1CC[C@H](N2C(=O)c3ccccc3C2=O)C(=O)N1,,inactive
Cc1occc1C(=O)NCCCCNC(=O)c1ccoc1C,inactive: -37.4%,
CCn1c(=O)c2c3c(sc2n2c(SCc4ccc(F)cc4)nnc12)CCCC3,inactive: -58.3%,
COC(=O)[C@@]1(Cc2ccccc2)[C@H]2c3cc(C(=O)N4CCCC4)n(Cc4cc(F)cc5c4OCOC5)c3C[C@H]2CN1C(=O)c1ccccc1,,active: 2.51 µM
CO/N=C(/C(=O)N[C@@H]1C(=O)N2C(C(=O)O)=C(COC(N)=O)CS[C@H]12)c1ccco1,inactive: -20.4%,
Cc1nnc(SCC(=O)N2CCOCC2)n1C,inactive: 10.7%,
CNc1ncnc2c1ncn2[C@@H]1O[C@@H](CO)[C@H](O)[C@@H]1O,inactive: -18.3%,
Cc1nc2ncnn2c(C)c1CCC(=O)N1CCN(c2ccccn2)CC1,inactive: 10%,
COC(=O)[C@H](Cc1ccccc1)NC(=O)[C@@H](N)CC(=O)O,inactive: -16.9%,
COc1cc(NC(=O)c2ccco2)c(OC)cc1NC(=O)Nc1ccc(Cl)cc1,inactive: -56.7%,
CCC(C)(C)OC,inactive: -4.14%,
COCCN(C(=O)Cn1nnc2ccccc21)C(C(=O)NC1CCCC1)c1cc(OC)ccc1OC (configuration not stated),,active: 25.1 µM
Cc1noc(C)c1CSc1nc2ccccc2c(=O)n1-c1ccc(F)cc1F,,active: 15.8 µM

Structure (SMILES),activation,Potency
Cn1cnc(S(=O)(=O)Nc2ccc(C(F)(F)F)cc2)c1,inactive: -60.6%,
CCN(CC)S(=O)(=O)c1cccc(-c2nnc(SCCOc3ccccc3C)o2)c1,,active: 15.8 µM
CCSC1=C(C#N)C(c2ccc(Cl)cc2)C2=C(CCCC2=O)N1 (configuration not stated),inactive: -129%,
Cc1ccc(C)c2[nH]c(=O)c(CN(CC3CCCO3)C(=O)NC3CCCCC3)cc12 (configuration not stated),,active: 3.98 µM
COC(=O)c1[nH]c2ccc(C)cc2c1NC(=O)C(C)N1CCN(C2CCCCC2)CC1 (configuration not stated),inactive: -57.1%,
Cc1ccc(C(C)(C)C)cc1,inactive: 6.25%,
COC(=O)c1c(NC(=O)c2ccco2)sc(C(=O)Nc2ccc(F)cc2)c1C,,active: 25.1 µM
COc1ccc2cc(C3(C)NC(=O)N(CC(=O)NCc4ccco4)C3=O)ccc2c1 (configuration not stated),inactive: -13.4%,
N=C(N)SCCN,inactive: 0.0298%,
CCCCOC(=O)c1ccc(O)cc1,,inactive
Cc1cc(NC(=O)COc2ccc(N(C)S(=O)(=O)c3ccccc3)cc2)no1,inactive: 23.7%,
COC(=O)[C@@]1(Cc2ccc(F)cc2)[C@H]2c3cc(C(=O)N4CCCC4)n(Cc4ccc(OC(F)(F)F)cc4)c3C[C@H]2CN1C(=O)c1ccccc1,,active: 1.58 µM
N#CC1=C(N)N2C(=C(C#N)C13CCCCC3)SC1CCCCC12O (configuration not stated),inactive: -31.7%,
CCC(C)c1ccccc1O (configuration not stated),inactive: -8.93%,
N#Cc1cc2c(nc1SCC(=O)Nc1nccs1)CCCCC2,,active: 20 µM
COC(=O)[C@@H]1C[C@H]1[C@@H](NS(=O)(=O)c1ccc(-c2ccccc2)cc1)c1ccccc1,inactive: 13.8%,
Nc1c2c(nc3ccccc13)CCC2,inactive: -84.1%,
CC1CCC2C(=O)N3C(CCC(C)[C@@H]3c3ccc(Br)cc3)C(=O)N2C1c1ccc(Br)cc1 (some centres not stated),inactive: -4.77% [at 11.4 µM],
CCc1cc(=O)oc2cc3oc(C)c(C)c3cc12,,active: 25.1 µM
COc1ccc(C2=CC(c3c(C)nn(-c4ccccc4)c3Cl)n3nnnc3N2)cc1OC (configuration not stated),inactive: 18.1%,
COc1ccc2nc3cc(Cl)ccc3c(Nc3ccc(O)c(CN4CCN(C)CC4)c3)c2c1,inactive: -30.8% [at 11.4 µM],
CC1CN2C(CCC(C)C2c2ccc(Br)cc2)C(=O)O1 (configuration not stated),inactive: -4.26% [at 11.4 µM] and inactive: 11% [at 11.4 µM] and inactive: 4.51% [at 11.4 µM],
Cc1c(C(=O)OC(C)C)[nH]c2c1C(=O)CCC2,inactive: 7.05%,
COC(=O)[C@@]1(Cc2ccc(OC)cc2)[C@H]2c3cc(C(=O)N4CCCC4)n(Cc4ccc(OC(F)(F)F)cc4)c3C[C@H]2CN1C(=O)c1ccccc1,,active: 2.51 µM
COc1ccc2cc3[n+](cc2c1OC)CCc1cc2c(cc1-3)OCO2,,inactive

Structure (SMILES),activation,Potency
Nc1ncnc2c1ncn2[C@H]1CC[C@@H](CO)O1,inactive: -9.22%,
CC[C@@H]1Cc2cc(O)ccc2C2=C1c1ccc(O)cc1C[C@H]2CC,,active: 6.31 µM
COC(=O)c1cn[nH]c1N,inactive: 2.07%,
CCCCCCC=O,inactive: -9.15%,
Cc1[nH]c2ccc(-c3nnc(SCC(=O)N4CCCc5ccccc54)o3)cc2c1C,inactive: -1.97%,
CCc1ccc(-c2nnn(CCC(=O)OC)n2)cc1,,active: 7.94 µM
C[C@@H](C(=O)NCC1CC1)[C@H]1C[C@]1(C)[C@H](NC(=O)OCc1ccccc1)c1ccccc1,,active: 10 µM
COC(=O)[C@@H]1[C@H]2C[C@H]3c4[nH]c5cc(OC)ccc5c4CCN3C[C@@H]2C[C@@H](OC(=O)c2cc(OC)c(OC)c(OC)c2)[C@@H]1OC,,inactive
CN(C)c1ccc(C(=N)c2ccc(N(C)C)cc2)cc1,inactive: 4.86%,
COC(=O)[C@H](Cc1ccccc1)NC(=O)[C@H]1C[C@@H]1[C@H](NC(=O)OCc1ccccc1)c1ccccc1,,active: 15.8 µM
COc1ccc(N2CCN(C(=O)CSc3nnc(C)c(=O)[nH]3)CC2)cc1,,active: 1.26 µM
Cc1ccc(-c2nnn(CC(=O)Nc3cccc4cccnc34)n2)o1,,active: 25.1 µM
O=C1Nc2ccc(I)cc2/C1=C/c1cc(Br)c(O)c(Br)c1,,inactive
CN(C)CCNc1c2c(c(C#N)c3nc4ccccc4n13)CCCC2,inactive: -93.8%,
O=C(NCc1ccc2c(c1)OCO2)c1ccc2snnc2c1,,active: 7.94 µM
CNc1nc(-c2ccc(N(C)C)cc2)nc2ccccc12,inactive: -72%,
Cc1ccc2nc(-c3cccc(S(=O)(=O)N(C)C)c3)cn2c1,,active: 25.1 µM
O=c1c2cccnc2[nH]c(=S)n1CCCN1CCN(c2ccccc2F)CC1,inactive: -61.4%,
O=C(O)c1cc([N+](=O)[O-])ccc1NCCCc1ccccc1,inactive: 20.7%,
CCN1C(=O)/C(=c2\o/c(=C3\C=Cc4ccccc4N3CC)c(=O)n2CC)SC1=S,inactive: -26.8%,
CC(C)(C)[C@@]1(O)CCN2C[C@@H]3c4ccccc4CCc4cccc(c43)[C@@H]2C1,inactive: 27.2%,
COc1cccc(-c2nc(CS(=O)(=O)CC(=O)Nc3cc(C)ccc3C)c(C)o2)c1,inactive: 13.4%,
c1ccc2c(c1)ccc1ccccc12,inactive: 34.5%,
CN(C)c1nc(N)c(C(=O)N=C(N)N)nc1Cl,,active: 25.1 µM
O=C(NCCN1CCc2ccccc2C1)C1CCN(S(=O)(=O)N2CCCCC2)CC1,inactive: -44.6%,

Structure (SMILES),activation,Potency
CN1CCN(c2nc(-c3ccc(N(C)C)cc3)nc3ccccc23)CC1,inactive: -89.1%,
Oc1ccc([C@@H]2CNCCc3c2cc(O)c(O)c3Cl)cc1,inactive: 7%,
Cc1ccc(C)c(OCCCC(C)(C)C(=O)O)c1,inactive: 2.75% [at 25.6 µM],
CCOC(=O)C1=C[C@@]2(CC)CCCN3CCc4c(n1c1ccccc41)[C@H]32,,inactive
CN(C)Cc1ccccc1,inactive: 14.8%,
CCn1c(Cn2nnc(-c3ccccc3)n2)nnc1SCC(=O)Nc1ccc(C(C)=O)cc1,inactive: -38%,
CCCCCCn1c(SCC(C)C)nc2c1c(=O)[nH]c(=O)n2C,,active: 25.1 µM
CC(C)=CC1C(C(=O)Nc2ccc(Br)cn2)C1(C)C (configuration not stated),,active: 25.1 µM
CC[C@H](C)N(C)C(=O)c1cc2ccccc2c(-c2ccccc2Cl)n1,inactive: 0.879%,
CN(C)CCC(c1ccc(Cl)cc1)c1ccccn1 (configuration not stated),inactive: 18%,
COC1=CC(=O)C[C@@H](C)[C@]12Oc1c(Cl)c(OC)cc(OC)c1C2=O,inactive: 46.8%,
CCCC(CCC)C(=O)O,inactive: 13.3%,
Cc1cc(-c2ccc(N=Nc3cc(S(=O)(=O)O)c4ccccc4c3N)c(C)c2)ccc1N=Nc1cc(S(=O)(=O)O)c2ccccc2c1N,inactive: -37.3%,
CCc1nc2oc(C(=O)c3ccccc3)c(N)c2c2c1COC(C)(C)C2,inactive: 0.422% [at 11.4 µM],
FC(F)(F)c1cnc(Nc2ccc(N3CCOCC3)cc2)c(Cl)c1,inactive: -33.4%,
Cc1cc(C)c2nc(-c3ccccn3)cc(C(=O)NCc3ccco3)c2c1,,active: 25.1 µM
CCCCOc1ccccc1NC(=O)c1ccco1,,active: 15.8 µM
N#Cc1nc(-c2ccco2)oc1N1CCc2ccccc2C1,,active: 25.1 µM
CCC(=O)N1c2ccc(S(=O)(=O)CCC(=O)NCCC3=CCCCC3)cc2CC1C (configuration not stated),inactive: 7.28%,
COC(=O)[C@@]1(C)C=C[C@@H](Cc2ccccc2)N1C(=O)c1ccccc1,,active: 20 µM
CCC(C)(C)NC(=O)C(c1ccc(C)o1)N(Cc1cccs1)C(=O)Cn1nnc2ccccc21 (configuration not stated),,active: 15.8 µM
CC(C)n1c(C(=O)OCC(=O)NCc2ccc3c(c2)OCO3)cc2sccc21,,active: 7.94 µM
